Measured values taken from PubChem BioAssay AID1508624 (National Center for Advancing Translational Sciences (NCATS), 2021).
The campaign covered roughly 48,000 compounds. About 120 (0.25%) were called active. Another 4% or so got no clear call; they are omitted. Calls follow the shape of the dose curve; as a rule, active = well fitted activation curve with a large enough effect; inconclusive = small, poorly fitted or top-dose-only effect, or another doubt; inactive = no such curve, though single readings can be large or run the other way. The list shows a part of the results.

Test: Primary qHTS for Identification of Small Molecule Activators of Huntingtin-Antisense Promoter Activity; also: nearly all actives have a fitted effect of over 55% in size
Conditions: HEK293 HTT-AS promoter firefly luciferase reporter (activity 0% = vehicle and -100% = no light), 24 h; series mostly up to 57.5 µM; activity change, positive = activation: at the top concentration
Method in brief: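 Firefly luciferase readout (Dual-Glo, 10 min RT) after 24 h, 37 °C compound exposure (final up to 57.5 uM) of HEK293 reporter cells cultured 24 h beforehand; PTC124 at 50 uM final as control inhibitor; activity scaled vehicle 0%, zero RLU -100%.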

Activity change, positive = activation, inactive:
Cc1ccc2[nH]c3c(=O)n(CC(=O)N(C)Cc4ccccc4)ncc3c2c1 -16.4%, O=C(Cc1ccc(F)cc1)NCCc1csc(-c2ccc(C(F)(F)F)cc2)n1 -34.6%, CCOC(=O)c1cnc(NCc2ccc(Cl)cc2)c2ccccc12 -12.2%, Cn1c(CN2CCCCC2)nc2cc(NC(=O)c3ccc(Cl)cc3)ccc21 -39.1%, CCN(CC)C(=O)c1ccccc1NC(=O)c1cccc(S(=O)(=O)N2CCC(C)CC2)c1 -9.16%, Cc1ccc(S(=O)(=O)N2CCCc3cc(NC(=O)c4c(F)cccc4F)ccc32)cc1 -18%, Cc1nn(CC(=O)NCc2ccccc2Br)c(=O)c2cc3occc3n12 0.475%, CCc1ccc(C2=C(C)C(N3CCC(C(=O)NCc4ccc(C)o4)CC3)=NS2(=O)=O)cc1 -9.83%, CCCCNC(=O)[C@@H](c1ccccc1)N1Cc2ccccc2C1=O -5.67%, Cc1ccc(Cl)cc1-n1ncc2c(N3CCC(C(N)=O)CC3)ncnc21 -23.1%, Cc1cccc(OCCCCn2c(C3CC(=O)N(c4ccc(C)cc4C)C3)nc3ccccc32)c1 (stereo not drawn) -59.1%, O=C(CCn1c(=O)c2cccn2c2cccnc21)N1CCN(c2ccc(Cl)cc2)CC1 -13.9%, CNc1oc(/C=C/c2cc(OC)c(OC)c(OC)c2)nc1C#N 3.06%, CCOc1ccccc1NC(=O)CSc1nccn1Cc1ccc(F)cc1 -16.3%, O=C(OCC1CCCO1)c1ccc2c(c1)N(Cc1ccccc1F)C(=O)c1ccccc1S2(=O)=O (stereo not drawn) -8.72%, Cc1ccccc1C(=O)Nc1ccc(C(=O)OCc2cc(=O)n3c4c(sc3n2)CCCC4)cc1 -37%, Cc1ccc(-n2c(=O)c3ccc(C(=O)NCc4ccccc4Cl)cc3n(CC(N)=O)c2=O)cc1 -53.1%, Cc1ccc(C(=O)Nc2ccc(F)cc2)cc1S(=O)(=O)N1CCOCC1 4.12%, Cc1cccc(CNC(=O)c2cnc3sc(N4CCOCC4)nn3c2=O)c1 -4.89%, Cc1cccc(C)c1Nc1c(-c2ccccc2O)nc2ncccn12 -28.6%, Cc1ccccc1CNC(=O)c1ccc2c(c1)N(Cc1ccccc1)CCS2 -20.3%, CCCCCCCCCCCCCCCCCC(=O)O 1.95%, O=C(CCCn1c(=O)c2cccn2c2cccnc21)Nc1ccccc1Br -9.59%, O=c1oc2ccc3ccccc3c2cc1-c1nnc(Nc2cccc(F)c2)s1 16.3%, CCN1CCOC(=O)C1CC(=O)Nc1cc(Cl)ccc1OC (stereo not drawn) -20%, CCCCn1c(=O)c2oc3ccccc3c2n(CC(=O)Nc2ccccc2OC)c1=O -10.9%, CCOC(=O)c1c(NC(=O)/C=C/c2ccc(OCC)cc2)sc2c1CCC2 -4.01%, Cc1ccc(CNC(=O)Cn2cc(C(=O)c3ccc(Cl)cc3)c(=O)c3ccc(C)nc32)cc1 -7.86%, COc1cc(OC)c(NC(=O)NCCn2nnc3cc(S(=O)(=O)N(C)C)ccc32)cc1Cl -3.61%, COc1ccc(-c2nn3c(=O)cc(CN4CCN(C(=O)Nc5cc(C)ccc5C)CC4)nc3s2)cc1 -9.8%, CCCCSCCCNC(=O)C1CCN(Cc2nc(-c3ccc(CC)cc3)oc2C)CC1 -1.18%, Cc1cccc(N2CCN(C(=O)c3sc4nc5n(c(=O)c4c3C)CCC5)CC2C)c1 (stereo not drawn) -12.8%, CCOc1ccc(CCNC(=O)C(CC)n2nc(C)c3c(C)n(-c4ccccc4)nc3c2=O)cc1 (stereo not drawn) -14.5%, CCCCNc1ccc(C(=O)OCCN(CC)CC)cc1 -5.51%, CCOC(=O)c1c(C)[nH]c(C)c1S(=O)(=O)N1CCC(C(=O)NCc2ccc(F)cc2)CC1 -14.7%, Cc1cc(-c2ccc(S(=O)(=O)Nc3cccc(C)c3C)s2)on1 -36.1%, COc1ccc(-c2c(C#N)c(SCC(=O)Nc3ccc(C)c(C)c3)nc(C)c2C(=O)Nc2ccc(Cl)cc2)cc1 -11.2%, O=C(CSc1nnc(-c2ccccc2Br)n1-c1ccccc1)c1ccc(F)cc1 -29.1%, Cc1nc2ccn(Cc3cccnc3)c(=O)c2cc1C(=O)NCc1ccccc1 -20.6%, O=C(NC1CCCC1)c1ccc(CSc2nc3cccnc3n2Cc2cccc(F)c2)cc1 -22%, O=c1[nH]c(SCc2ccccc2)nc2c1CCCC2 1.18%, CC(C)(C)C1CCc2nc(NC(=O)c3cccc(Cl)c3)sc2C1 (stereo not drawn) -75.7%, COC(=O)c1ccc(OCC2c3cc(OC)c(OC)cc3CCN2C(=O)c2ccc(OC)cc2)cc1 (stereo not drawn) -24.5%, Cc1oc(-c2ccccc2Cl)nc1CS(=O)CC(=O)N1CCN(c2cccc(C(F)(F)F)c2)CC1 (stereo not drawn) -38.2%, Cn1nnnc1SCCCNCc1cc(Br)ccc1OCc1ccccc1 -18.6%, Cc1nc2sccn2c(=O)c1S(=O)(=O)Nc1ccc(N2CCN(C)CC2)cc1 -0.426%, COc1cc2c(cc1OC)-c1cc(=Nc3c(C)cc(C)cc3C)n(C)c(=O)n1CC2 -20.6%, CCCOc1cccc(C(=O)Nc2cc(-c3nc4ccccc4[nH]3)ccc2C)c1 -8.2%, CCCc1cnc2c(c1SCc1cccc(C)c1)c(=O)n(C)c(=O)n2C -28.1%, COc1cc(OC)c(NC(=O)c2sc3nc4n(c(=O)c3c2C)CCCC4)cc1Cl 1.89%, COc1ccc(S(=O)(=O)NCCc2sc(C)nc2C)cc1 -33.6%, COc1ccc(-n2c(-c3ccccc3F)nc3c(cnn3-c3ccc(C)cc3)c2=O)cc1 -42%, CCOc1cc(Cn2c(-c3ccc(O)c(OCC)c3)nc3ccccc32)ccc1O -13.8%, O=C(CC1C(=O)OCCN1Cc1ccccc1)Nc1cccc(Cl)c1 (stereo not drawn) -34.1%, Cc1cc(C)cc(NC(=O)c2nnn(Cc3cccc(Br)c3)c2N)c1 -29.8%, CCCCC(=O)N1CC(=O)Nc2ccc(F)cc2C1c1ccc(F)cc1 (stereo not drawn) 1.6%, CCn1c(CNC(=O)C23CC4CC(CC(C4)C2)C3)nnc1SCC(=O)Nc1ccc(C)cc1 -26.7%, Cc1nc2c3cccnc3nn2c(C)c1CCC(=O)NCc1ccccc1Cl -9.41%, Cc1ccc(S(=O)Cc2ccc(C(=O)NCc3ccc(OC(C)C)cc3)o2)cc1 (stereo not drawn) -21.1%, CCOc1ccccc1NC(=O)CSc1nc2ccccc2nc1Cc1ccc(C)cc1 -31.3%, Cc1ccc2c(Sc3ccccc3)c(C(=O)NCc3ccccc3F)[nH]c2c1 8.86%, CC(=O)c1ccc(NC(=O)c2sc(-n3nc(C)c(CCC(C)C)c3C)nc2C)cc1 9.27%, CCOC(=O)[C@H](CCc1ccccc1)N[C@H]1CCc2ccccc2N(CC(=O)O)C1=O, COc1cc(OC)c(NC(=O)Cc2c(C(=O)O)c(C)cn2C)cc1Cl -16.7%, COc1ccc(NC(=O)C2=C(C)Nc3ncnn3C2c2sccc2C)cc1 (stereo not drawn) -10.8%, CC(=O)N1CCCC1c1nc2ccccc2n1Cc1c(F)cccc1Cl (stereo not drawn) -11.9%, CCc1ccc(OCC(=O)Nc2ccc(S(=O)(=O)Nc3onc(C)c3C)cc2)cc1 -14.2%, COc1ccc(OC2CCN(S(=O)(=O)c3cccc(F)c3)CC2)cc1 -33.2%, Cc1ccc2oc(=O)n(CCNC(=O)Nc3ccccc3C)c2c1 -9.11%, Cc1ccc(CNC(=O)Cc2c(C(=O)O)c(C)cn2C)cc1 -6.14%, CCCCn1c(=O)c2oc3ccccc3c2n(CC(=O)Nc2cc(C)ccc2C)c1=O -8.3%, COc1ccc(C(=O)CSc2nc3cc(C(=O)NC4CCCC4)ccc3c(=O)n2CC2CCCO2)cc1 (stereo not drawn) 3.13%, Cc1ccccc1NC(=O)Nc1csc2c1CCCC2 4.34%, CCOc1ccc(CN2C(=O)c3ccccc3Sc3ccc(C(=O)NCc4ccc5c(c4)OCO5)cc32)cc1 -16.6%, COc1ccc(C)cc1NC(=O)C(NS(=O)(=O)c1cccs1)c1ccccc1 (stereo not drawn) -17.5%, Cc1cccc(C(=O)N2CCNC(=O)C2CC(=O)Nc2ccc(F)cc2)c1 (stereo not drawn) 0.299%, Cc1cccc(NC(=O)Cn2c(=O)n(CCc3ccccc3)c(=O)c3ccccc32)c1 -8.98%, COc1ccc(C2C(C(=O)Nc3ccccc3)=C(C)Nc3nc(-c4ccccc4)nn32)c(OC)c1 (stereo not drawn) -24.6%, CCOC(=O)c1c(C)oc2nc(C)nc(Nc3cc(C)cc(C)c3)c12 -9.11%, CC(=O)N1CCCc2cc(S(=O)(=O)N(CCN(C)C)Cc3ccccc3)ccc21 -6.75%, CCc1ccc2oc(C(=O)NCC(c3ccc(Cl)cc3)N3CCOCC3)c(C)c2c1 (stereo not drawn) -20.8%, CCc1cccc(C)c1NC(=O)c1cc(S(=O)(=O)N(C)Cc2ccccc2)ccc1F -46.1%, Cc1ccc(-n2ncc3c(N4CCCCC4)ncnc32)cc1Cl -84%, O=C(CSc1nc2ccccc2n1Cc1ccc(F)cc1)N1CCN(c2ccc(F)cc2)CC1 -6.84%, Cc1csc2nc(COC(=O)c3ccc(F)cc3)cc(=O)n12 -18.8%, CC(=O)Nc1ccc(NC(=O)CCc2c(C)nc3c(c(C)nn3-c3ccc(C)cc3)c2C)cc1 -6.21%, CC(=O)Nc1ccccc1-c1nc2ccccc2n(C(C)C(=O)Nc2cc(Cl)ccc2C)c1=O (stereo not drawn) -7.03%, CCN(CC)S(=O)(=O)c1nnc(NC(=O)COc2ccc(C)cc2)s1 -24.7%, Cc1ccc(C)c(NC(=O)CSc2nnc(CNC(=O)c3ccccc3)n2-c2ccccc2)c1 -15.4%, CCOc1ccc(NC(=O)c2ccc(CN3C(=O)C(C)=C(c4ccc(C)cc4)S3(=O)=O)cc2)cc1 -12.3%, CCC(=O)Nc1ccccc1-c1nc2ccccc2n(Cc2cccc(Br)c2)c1=O -13.7%, Cn1c(=O)c2sccc2n2c(CCCC(=O)Nc3ccc(Cl)cc3)nnc12 -5.56%, CC(C)n1c(/C=C/[C@@H](O)C[C@@H](O)CC(=O)O)c(-c2ccc(F)cc2)c2ccccc21 -7.55%, O=C(Nc1ccccc1Cl)c1ccc(F)c(S(=O)(=O)NCc2ccc(Cl)c(Cl)c2)c1 -34.5%, CCOC(=O)c1sc(N2C(=O)c3oc4cc(C)c(C)cc4c(=O)c3C2c2ccc(C)cc2)nc1C (stereo not drawn) -18.8%, COc1ccc(CN2CCCN(CC(=O)Nc3cc(C)ccc3C)S2(=O)=O)cc1 -15.9%, CCOC(=O)Cn1c(C2CC(=O)N(c3ccc(C)cc3)C2)nc2ccccc21 (stereo not drawn) -16.5%, CCC(=O)N1c2ccccc2CC1C(=O)NCCc1ccc(SC)cc1 (stereo not drawn) -6.8%
